Results on 94 molecules are retold here after PubChem BioAssay AID360 (National Center for Advancing Translational Sciences (NCATS), 2006).

In all, about 48,000 compounds went through this assay and about 550 (1.1%) were called active. Inconclusive results (about 4%) are left out. Rule as the data show it: active = potency below about 15 µM; inconclusive = mostly about 16 µM to 33 µM; inactive = weaker than that. The list shows a part of the results. Where only a bound is given, the exact number is not on record here.
Potency is read from the fitted curve at half-maximal effect.

For the experiment, the target named is Lysosomal acid glucosylceramidase (Homo sapiens) (UniProt P04062). Kind of experiment: Glucocerebrosidase.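 Also: the screen sought inhibitors.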 The settings on record: purified enzyme, resorufin glucoside fluorescence (screen aimed at inhibitors), 20 min; series mostly up to 77 µM. The method, boiled down: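 Wild-type enzyme at 0.2 nM final in 50mM citric acid/KH2PO4, 10mM sodium taurocholate, 0.01% tween-20, pH 5.9, with resorufin beta-D-glucopyranoside at 30 uM final. Compounds titrated, 20 min at RT, red fluorescence read; AC50 from titration.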
Sequence of UniProt P04062 (P04062 whole entry, looked up): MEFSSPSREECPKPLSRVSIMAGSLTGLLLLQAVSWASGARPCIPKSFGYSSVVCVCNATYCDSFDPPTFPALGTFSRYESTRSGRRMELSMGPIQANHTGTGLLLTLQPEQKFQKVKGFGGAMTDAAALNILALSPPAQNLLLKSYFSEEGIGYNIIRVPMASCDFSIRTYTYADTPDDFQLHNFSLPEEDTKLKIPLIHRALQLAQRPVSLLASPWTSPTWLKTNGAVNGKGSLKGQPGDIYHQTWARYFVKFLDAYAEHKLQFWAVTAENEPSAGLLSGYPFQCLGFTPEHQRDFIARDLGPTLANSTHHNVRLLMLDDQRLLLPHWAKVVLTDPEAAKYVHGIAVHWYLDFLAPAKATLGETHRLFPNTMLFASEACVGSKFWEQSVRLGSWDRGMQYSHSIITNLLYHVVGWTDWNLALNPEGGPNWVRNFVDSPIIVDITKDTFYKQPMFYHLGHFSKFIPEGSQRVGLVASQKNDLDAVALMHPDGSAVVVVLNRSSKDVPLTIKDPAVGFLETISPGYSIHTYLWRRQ
For `COC(=O)Cn1c(=O)c2c(nc(Br)n2CC(=O)OC)n(C)c1=O`, the Potency is inactive: > 76.9 µM. Consider `CCOCC(=O)Nc1ccccc1C(=O)OCC`, for which the Potency is inactive: > 76.9 µM.

In the case of `C=CCn1c(=O)/c(=C/c2ccc(Cl)cc2)s/c1=C(/C#N)c1nnc2n1CCCCC2`, the Potency was inactive: > 76.9 µM. For `CCC(C)(C)NC(=O)CN(C(=O)c1snc(C(N)=O)c1N)c1ccc2c(c1)OCCO2`, the Potency was inactive: > 76.9 µM.

For the molecule `O=C(CN1C2=NCCN2c2ccccc21)c1ccc(Br)cc1`, the Potency is inactive: > 76.9 µM.

Take `CCn1c(SCC(=O)N2CCc3ccccc3C2)nc2c1c(=O)n(C)c(=O)n2C`: the Potency was inactive: > 76.9 µM.

In the case of `O=C(CN1C(=O)COc2ccccc21)N(Cc1ccccc1)Cc1ccccn1`, the Potency was inactive: > 76.9 µM. Take `O=S(=O)(c1ccc(F)cc1)N1CCN(CC(O)COCc2cccs2)CC1` (centres undefined): the Potency is inactive: > 76.9 µM. For the molecule `COc1cccc(OCc2nc3ncc(Br)cc3[nH]2)c1`, the Potency was inactive: > 76.9 µM. `CC1(C)CC(=O)c2cn3c(nc2C1)nc1ccccc13`: the Potency is inactive: > 76.9 µM. In the case of `O=C1N=C(N2CCOCC2)S/C1=C1\C(=O)N(Cc2ccccc2)c2ccc(Br)cc21` it was inactive: > 76.9 µM. To `O=C(CS(=O)(=O)Cc1ccccc1)Nc1cccnc1` belongs inactive: > 76.9 µM; to `CCOC(=O)C1CCCN(C(=O)c2ccccc2NC(C)=O)C1` (centres undefined), inactive: > 76.9 µM. In the case of `NC(=O)c1cc2ccc(O)cc2oc1=Nc1ccccc1` it was “inactive”. On to `COC(=O)C1C2C=CC3(CN(C(C)c4ccc(OC)cc4)C(=O)C13)O2` (centres undefined), for which the Potency is inactive: > 76.9 µM.

With `COc1ccc(C(C)NC(=O)C2CCCO2)cc1OC` (centres undefined), the Potency is inactive: > 76.9 µM. Consider `CCOc1cc2c(cc1C(C)(C)C)NC(=O)CS2`, for which the Potency result is “inactive”.

In the case of `Cc1cccc(NC(=O)CC2CCC2)c1`, the Potency is inactive: > 76.9 µM. `CCCCn1c(N)c(N(CC)C(=O)c2ccc3c(c2)S(=O)(=O)c2ccccc2C3=O)c(=O)[nH]c1=O`: the Potency was inactive: > 76.9 µM. In the case of `O=c1cc(CN2CCOCC2)c2c(ccc3ccccc32)o1` it was inactive: > 76.9 µM; in that of `CCOc1cc([C@H]2[C@@H]3CCCC[C@]3(O)CCN2CC(=O)NCc2ccco2)ccc1O`, inactive: > 76.9 µM. In the case of `Cc1cc(NC(=O)NC2CCCN2S(=O)(=O)c2ccc(Cl)cc2)no1` (centres undefined) it was inactive: > 76.9 µM.

`CC(=O)Nc1cccc(-c2nnc(SCc3ccccc3C#N)n2C)c1`: the Potency was inactive: > 76.9 µM.

On to `CCN(CC)C(=O)Cn1cnc2ccccc2c1=O`, for which the Potency was inactive: > 76.9 µM. For `O=C(NCCCN1CCN(Cc2ccccc2)CC1)c1nnc(Cc2c(F)cccc2Cl)o1`, the Potency is inactive: > 76.9 µM.

Consider `O=C(Nc1nccs1)C(NS(=O)(=O)c1ccc(Br)s1)c1ccccc1` (centres undefined), for which the Potency was inactive: > 76.9 µM.

Turning to `CCOC(=O)CC(=O)CSc1nc(C)cc(-c2cccnc2)c1C#N`, the Potency is inactive: > 76.9 µM. For `O=C(CS(=O)(=O)Cc1ccccc1)N1CCc2ccccc2C1`, the Potency was inactive: > 76.9 µM. As to `CN(Cc1nc2ccccc2n1C)S(=O)(=O)c1ccc(Cl)cc1`, the Potency is inactive: > 76.9 µM. Consider `O=C(Nc1ccc2c(c1)OC1(CCCC1)O2)C1CC1`, for which the Potency entry is “inactive”. To `CCN1CCN(C(c2cccs2)C(C)NC(=O)c2ccccc2F)CC1` (centres undefined) belongs inactive: > 76.9 µM. In the case of `CCc1ccc(OC)c(S(=O)(=O)Nc2ccccc2C)c1` it was inactive: > 76.9 µM. For the molecule `CCN(CCCNC(=O)C1CCN(S(=O)(=O)CC)CC1)c1ccccc1`, the Potency was inactive: > 76.9 µM.

For the molecule `Nc1cccc2cnccc12`, the Potency is inactive: > 76.9 µM. As for `COc1ccc(NC(=O)N(Cc2cc3cc(OC)ccc3[nH]c2=O)CC2CCCO2)cc1` (centres undefined), the Potency is inactive: > 76.9 µM.

As to `O=C(Nc1ccc(CN2CCCCC2)cc1)c1ccc(Br)o1`, the Potency was inactive: > 76.9 µM. To `COc1cccc(Oc2cnc(N)nc2-c2ccc(OC)cc2O)c1` belongs inactive: > 76.9 µM. On to `O=C(OCC(=O)N1CCCCC1)c1cc2ccccc2cc1O`, for which the Potency was inactive: > 76.9 µM. As for `O=C(C(NS(=O)(=O)c1cccs1)c1ccccc1)N1CCN(c2ccccc2)CC1` (centres undefined), the Potency is inactive: > 76.9 µM. For `Cc1ccc(N2CCN(C(=O)N3CCCC3)CC2)cc1Cl`, the Potency was inactive: > 76.9 µM.

`C=C(Cl)COC(=O)[C@H]1C2C=CC(C2)C1C(=O)O` (some centres undefined): the Potency was inactive: > 76.9 µM. For the molecule `O=C(Nc1nccs1)c1ccc(CSc2nnnn2-c2ccccc2)cc1`, the Potency was inactive: > 76.9 µM. Regarding `COCCCn1c(-c2ccc(OC)cc2)nc2nc3ccccc3nc21`, the Potency is inactive: > 76.9 µM. To `COc1ccc(CCNC(=O)c2cc(-c3cc(C)c(C)cc3O)n[nH]2)cc1OC` belongs inactive: > 76.9 µM. In the case of `CCc1ccc2c(COn3nnc4ccc(S(=O)(=O)N(C)C)cc43)cc(=O)oc2c1` it was inactive: > 76.9 µM. Turning to `Cn1nnnc1SCCNCc1cccc2ccccc12`, the Potency is inactive: > 76.9 µM.

Turning to `CC1CCCN(CC(=O)Nc2ccc(S(=O)(=O)NC3CCCCC3)cc2)C1` (centres undefined), the Potency result was “inactive”. To `COc1ccc(CC(=O)Nc2c3c(nn2-c2cccc(C)c2C)CS(=O)C3)cc1OC` (centres undefined) belongs inactive: > 76.9 µM; to `CC1CC(N(C(=O)c2ccco2)c2ccccc2)c2ccccc2N1` (centres undefined), inactive: > 76.9 µM. With `CCOC(=O)c1oc2c(CN3CCCCC3C)c(O)ccc2c(=O)c1-c1ccc(OC)c(OC)c1` (centres undefined), the Potency is inactive: > 76.9 µM.

As for `CC(C)c1ccccc1NC(=O)c1ccco1`, the Potency was inactive: > 76.9 µM. For the molecule `COCCn1c(SCC(=O)NCCc2ccccc2)nnc1-c1ccco1`, the Potency was inactive: > 76.9 µM.

With `O=C(Nn1cnnc1)c1cc(-c2ccccn2)nc2ccccc12`, the Potency is inactive: > 76.9 µM.

Turning to `O=C(Cn1nnc2c(cnn2-c2ccccc2)c1=O)NCc1cccs1`, the Potency is inactive: > 76.9 µM. For the molecule `O=C1CCCCCC1C1(O)C(=O)Nc2ccc(Br)cc21` (centres undefined), the Potency was inactive: > 76.9 µM.

On to `COc1cc2c(cc1OC)CN(C(=O)COc1ccc(C)c(C)c1)CC2`, for which the Potency was inactive: > 76.9 µM. Consider `CCSc1nnc(NC(=O)CCNS(=O)(=O)c2cc(Br)cnc2N)s1`, for which the Potency is inactive: > 76.9 µM. `c1csc(-c2cnc3ccccc3n2)c1`: the Potency was inactive: > 76.9 µM. For `CCCCCN(C(=O)NC(=O)NCCCC)S(C)(=O)=O`, the Potency was inactive: > 76.9 µM.

As to `Cc1cnc(C(=O)OCC(=O)Nc2ccc(Cl)cc2Cl)cn1`, the Potency is inactive: > 76.9 µM. For the molecule `COc1cc(-c2nnc(COC(=O)C3c4ccccc4Oc4ccccc43)o2)cc(OC)c1OC`, the Potency is inactive: > 76.9 µM.

In the case of `NCCCCCc1nnc(SCc2cccc(Cl)c2)o1`, the Potency result was “inactive”.

On to `Cc1cccn2c(=O)c3cc(C(=O)N4CCc5ccccc54)n(C)c3nc12`, for which the Potency is inactive: > 76.9 µM. In the case of `C=CCn1c(SCn2nnc3ccccc3c2=O)nnc1-c1ccc(F)cc1` it was inactive: > 76.9 µM; in that of `C=C(C)C1Cc2nc(N)nc(C)c2C1` (centres undefined), inactive: > 76.9 µM.

Take `CC1CCN(C(=O)c2ccc(C(=O)N3CCC(C)CC3)cc2)CC1`: the Potency is inactive: > 76.9 µM.

For the molecule `O=c1cc(CSc2nnnn2-c2ccccc2)nc2nc[nH]n12`, the Potency is inactive: > 76.9 µM. To `CN1C(=O)C(=C2CCCCCC2)SC1=S` belongs inactive: > 76.9 µM; to `COc1ccc(C2C(C#N)=C(N)Oc3cc4c(cc32)OCO4)cc1` (centres undefined), inactive: > 76.9 µM. `CCOC(=O)N1CCN(C(=O)C2CCN(S(C)(=O)=O)CC2)CC1`: the Potency was inactive: > 76.9 µM. In the case of `CC1CCN(C(=O)c2cc(-c3ccc(Cl)c(Cl)c3)on2)CC1` it was inactive: > 76.9 µM; in that of `COC(=O)[C@H](C(C)C)n1c(C)c(C(C)=O)c(C(C)=O)c1C`, “inactive”; in that of `COCCCNC(=O)C12CCC(C)(C(=O)C1)C2(C)C` (centres undefined), inactive: > 76.9 µM.

`CC1=C2C(=O)OC(c3ccoc3)C2(C)CCC1` (centres undefined): the Potency is inactive: > 76.9 µM. For `O=C(c1ccccc1C(=O)N1CCN(c2ccccc2)CC1)N1CCN(c2ccccc2)CC1`, the Potency is inactive: > 76.9 µM. Take `Cc1ccc(C=NCc2ccncc2)c(O)c1`: the Potency was inactive: > 76.9 µM. In the case of `COc1cc(NC(=O)Cc2cccs2)ccc1-n1cnnn1` it was inactive: > 76.9 µM; in that of `O=C(COC(=O)CNC(=O)c1ccco1)NCCN1C(=O)CSC1=O`, inactive: > 76.9 µM; in that of `Cc1cc(NC(=O)CSc2nc3ccccc3n2CC(=O)N2CC(C)CC(C)C2)no1` (centres undefined), inactive: > 76.9 µM. Regarding `CCOc1cc2[nH]c(=O)n(CCCCC(=O)NCc3ccco3)c(=O)c2cc1OCC`, the Potency is inactive: > 76.9 µM.

In the case of `COc1cccc(NC(=O)CSc2nnc(-c3cc(-c4ccccn4)nc4ccccc34)o2)c1`, the Potency was inactive: > 76.9 µM. `O=C(CCS(=O)(=O)c1cccc2nsnc12)NCc1ccccc1`: the Potency is inactive: > 76.9 µM. Turning to `O=C(CN1CCC(NC(=O)Nc2ccccc2-c2ccccc2)CC1)NCc1ccco1`, the Potency was inactive: > 15.4 µM. Consider `O=C(CSc1nnc(CNC(=O)c2cccs2)o1)NC1CCCCC1`, for which the Potency was inactive: > 76.9 µM. Regarding `O=C(CSc1ncccn1)c1ccccc1Br`, the Potency was inactive: > 76.9 µM.

For `O=C(O)c1cc(S(=O)(=O)O)ccc1O`, the Potency was inactive: > 76.9 µM. In the case of `O=S(=O)(Nc1nc2ccccc2[nH]1)c1ccccc1` it was inactive: > 76.9 µM; in that of `COc1cccc(-c2nc(CSCC(=O)NCC3CCCO3)c(C)o2)c1` (centres undefined), inactive: > 76.9 µM; in that of `O=C(CC(c1ccccc1)c1cc(Cl)ccc1O)N1CCOCC1` (centres undefined), inactive: > 76.9 µM.

Regarding `Cc1cccc(-n2nc3c(c2NC(=O)c2ccc(Br)o2)CSC3)c1C`, the Potency was inactive: > 76.9 µM. As to `Cc1ccc(O)c(CC(C)C)n1`, the Potency is inactive: > 76.9 µM. In the case of `Cc1cccn2c(=O)c3cc(C(=O)NCC4CCCO4)n(C)c3nc12` (centres undefined) it was inactive: > 76.9 µM. Consider `CCN(CC)c1ncnc2c1cnn2C`, for which the Potency was inactive: > 76.9 µM.

Turning to `Cc1ccc(C(=O)CCC(=O)Nc2cccnc2)cc1C`, the Potency is inactive: > 76.9 µM.
